Consider two compounds from patent US12371752B2 (priority 2019, dated 2025).

Molecules are shown by their SMILES.

The target of the assay is influenza virus-derived neuraminidase (Influenza A virus, UniProt P03468).
Sequence of UniProt P03468 (P03468 whole entry, looked up): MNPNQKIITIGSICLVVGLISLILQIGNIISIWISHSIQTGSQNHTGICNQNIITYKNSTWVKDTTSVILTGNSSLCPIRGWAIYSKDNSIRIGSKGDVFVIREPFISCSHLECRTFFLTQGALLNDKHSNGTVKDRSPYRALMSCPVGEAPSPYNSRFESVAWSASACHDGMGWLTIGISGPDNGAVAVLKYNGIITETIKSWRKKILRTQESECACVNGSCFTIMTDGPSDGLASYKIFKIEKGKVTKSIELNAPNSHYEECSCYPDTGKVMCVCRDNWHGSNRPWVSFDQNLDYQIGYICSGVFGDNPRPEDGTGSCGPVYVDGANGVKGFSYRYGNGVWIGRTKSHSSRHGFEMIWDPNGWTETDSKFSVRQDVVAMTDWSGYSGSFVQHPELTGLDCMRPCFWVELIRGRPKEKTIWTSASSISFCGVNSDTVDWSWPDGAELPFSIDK

Regarding `CC(=O)N[C@@H]1[C@@H](O)C[C@](Oc2ccc3c(C)cc(=O)oc3c2)(C(=O)O)O[C@H]1C(O)[C@H](O)CO` (stereo partly drawn) [4MU-NANA, 2′-(4-methylumbelliferyl)-α-D-N-acetylneuraminic acid, reference compound], the “change in fluorescence intensity with elapsed time” value is listed as “increased over time”.

Take `CC(=O)N[C@H]1[C@H]([C@H](O)[C@H](O)CO)O[C@@](Oc2ccc(COc3ccc4c(c3)Oc3cc(NCC(F)(F)F)ccc3C43OCc4ccccc43)cc2)(C(=O)O)C[C@@H]1O` (some centres unmarked) [HMRef-S-Neu5Ac]: the “change in fluorescence intensity with elapsed time” value is on record as “no change”.
